Reference: PubChem BioAssay AID1240 (Sanford-Burnham Center for Chemical Genomics, 2008)
The whole screen tested about 50,000 compounds, of which about 800 (1.6%) showed an effect of 50% or more. This is one part of the list.

molecular target: Bcl-2-like protein 10 (Homo sapiens) (UniProt Q9HD36); experiment: TR3 peptide-Bcl-B binding displacers, biochemical primary FP assay, phenotype converters (AID 1240); settings: GST-Bcl-B / FITC-TR3 peptide fluorescence polarization; stronger effect = higher value; compound at 3.75 mg/L;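 note: 0% = Bcl-B with tracer peptide and DMSO and 100% = tracer peptide lacking Bcl-B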
UniProt Q9HD36, sequence (Q9HD36 whole entry, looked up): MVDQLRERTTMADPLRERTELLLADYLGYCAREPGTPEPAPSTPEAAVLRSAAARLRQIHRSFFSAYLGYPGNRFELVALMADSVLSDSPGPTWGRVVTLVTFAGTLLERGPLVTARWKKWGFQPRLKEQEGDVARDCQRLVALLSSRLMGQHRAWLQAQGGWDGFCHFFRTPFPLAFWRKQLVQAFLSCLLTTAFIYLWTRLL

| Structure (SMILES) | displacement |
| --- | --- |
| OC(COc1ccc(Cl)cc1)CSc1nc2ccccc2s1 (stereo not given) | -12.9% |
| O=C1CC(c2ccccc2)CC2=C1C(c1cccc(C(F)(F)F)c1)Nc1ccccc1N2 (stereo not given) | 8.2% |
| CCSc1nnc(NC(=O)c2c(-c3c(Cl)cccc3Cl)noc2C)s1 | 9% |
| Oc1ccccc1C=Nc1ccccc1N=Cc1c(O)ccc2ccccc12 | -8.6% |
| COc1ccc(NC(=O)COc2ccc(C(C)C)cc2)c(OC)c1 | 1.9% |
| Cc1c(C(c2cc3c(cc2Br)OCO3)c2c(C)n(C)n(-c3ccccc3)c2=O)c(=O)n(-c2ccccc2)n1C | -4.7% |
| O=C(COc1ccccc1)Nc1cccc([N+](=O)[O-])c1 | 2.4% |
| COc1cc(-c2nnc(N)s2)cc(OC)c1OC | 13.2% |
| COc1ccc(OC)c(N(CC(=O)Nc2ccc(C)cc2)S(=O)(=O)c2ccccc2)c1 | -5.4% |
| CCN(C(=O)c1sc(NC(=O)c2ccccc2F)c(C#N)c1C)C1CCCCC1 | 11% |
| O=C(Nc1ccccc1)c1ccccc1N=Cc1cc(Cl)cc(Cl)c1O | 11.3% |
| CC1=NN(C(=O)c2ccncc2)C(O)(c2ccc(Cl)cc2)C1 (stereo not given) | -10.9% |
| COc1cccc(NCCC(=O)c2ccccc2)c1 | 15.7% |
| O=C(NCCN1CCOCC1)c1sc2ccccc2c1Cl | -3.6% |
| C=CCOC(=O)C1=C(C)NC(C)=C(C(=O)OCC=C)C1c1ccc(C(=O)OC)cc1 | 4.8% |
| O=C(Cn1cnc2ccccc21)N=Nc1c(O)[nH]c2ccccc12 | -5.3% |
| CCOc1ccccc1C(C1=C(O)CC(C)(C)CC1=O)C1C(=O)CC(C)(C)CC1=O (stereo not given) | -4.7% |
| CCOc1cccc(C(=O)Nc2ccc(NC(=O)c3cc4ccccc4o3)c(OC)c2)c1 | 19.9% |
| Cc1ccc(S(=O)(=O)NC(=O)NCC2CCCO2)cc1 (stereo not given) | -3.4% |
| C=CCN1C(=O)NC(=O)/C(=C\c2ccc(OCc3ccccc3Cl)c(OC)c2)C1=O | -1.6% |
| COc1ccc(Br)cc1-c1nc2nnc(C)n2[nH]1 | -0.3% |
| CCCOc1cccc(C(=O)Nc2ccc(OC(F)(F)F)cc2)c1 | -6.7% |
| Cc1ccc2nc(NC(=O)C3CC3c3ccccc3)sc2c1 (stereo not given) | 4.7% |
| O=c1c2c([nH]c3ccccc13)CCCCC2 | -9% |
| O=C(Nc1cc([N+](=O)[O-])ccc1Cl)c1cc2ccccc2o1 | 1.2% |
| CCN1C(=O)/C(=C\c2nc3ccccc3c(=O)n2C)c2ccccc21 | 7.3% |
| O=C(c1cccnc1)N1CCN(c2ccc(Cl)cc2)CC1 | 5.9% |

| Structure (SMILES) | displacement |
| --- | --- |
| O=C1c2ccc(S(=O)(=O)c3ccc4c(c3)C(=O)N(CCO)C4=O)cc2C(=O)N1CCO | 1.4% |
| CCOC(=O)c1c(C)n(C)c2c1cc(O)c1ccccc12 | -0.3% |
| CCC(C)c1ccc(NC(=O)c2cc(C(=O)OC)cc([N+](=O)[O-])c2)cc1 (stereo not given) | -5.1% |
| CCNc1nc(NS(=O)(=O)c2ccc(C)cc2)nc(SC)n1 | 2.7% |
| Cc1ccc(S(=O)(=O)Oc2cccc(/C=C3/SC(=S)N(Cc4ccccc4)C3=O)c2)cc1 | -1.9% |
| Cc1ccc(NC(=O)c2ccc(-c3ccc(Cl)cc3Cl)o2)c([N+](=O)[O-])c1 | -1% |
| C=C(C)C(=O)Oc1ccc(N2C(=O)C=CC2=O)cc1 | -0.2% |
| CCc1nc(-c2ccccc2)nc(-c2ccccc2)c1C | 3.3% |
| COc1cc(/C=N/N2CCN(Cc3ccc(Cl)cc3)CC2)cc(OC)c1OC(C)=O | -13.7% |
| CCOC(=O)C1=C(O)/C(=C/c2ccc(O)c(OC)c2)SC1=Nc1ccc([N+](=O)[O-])cc1 | 49.9% |
| COc1ccc(CC(=O)NNC(=O)c2ccc(Cl)cc2)cc1 | -1.7% |
| CCn1c2ccccc2c2nnc(SCC(=O)Nc3nnc(C(C)C)s3)nc21 | -6.7% |
| CCOC(=O)C1=C(C)N=C2c3ccccc3C(=O)C2C1c1ccc(Cl)cc1 (stereo not given) | 11.1% |
| CCOC(=O)c1cccc(NC(=O)c2cncc(Br)c2)c1 | 11.1% |
| CCC(CC)C(=O)Nc1ccc(C)c([N+](=O)[O-])c1 | 1.1% |
| COc1ccc(S(=O)(=O)N/N=C/c2ccc[nH]2)cc1 | -0.9% |
| Cc1cccc(NC(=S)NC(NC(=O)c2ccccc2F)C(Cl)(Cl)Cl)c1 (stereo not given) | -6.5% |
| COC(=O)C1=C(C)NC(C)=C(C(=O)OC)C1c1cn(-c2ccccc2)nc1-c1ccc(S(=O)(=O)N(C)C)cc1 | 9.4% |
| CCOc1cc(C=C2C(=O)c3ccccc3C2=O)cc(Br)c1OCc1ccccc1 | 11% |
| CC(=O)N(C1=C(N2CCCC2)C(=O)c2ccccc2C1=O)C1CCCCC1 | 3.4% |
| O=C1NC(=S)N(c2ccccc2)C(=O)/C1=C/c1cccs1 | -4.6% |
| O=C1CC(C2CCCO2)C(=O)N1c1ccc(Cl)c(Cl)c1 (stereo not given) | -3.7% |
| O=C(Nc1cccc(Cl)c1)Nc1nnc(-c2ccc(Cl)cc2Cl)s1 | 8.5% |
| Cn1c2ccccc2c2nnc(SCC(=O)OCN3C(=O)c4ccccc4C3=O)nc21 | 25% |
| COc1ccccc1N1N=C(c2ccccc2)CC1c1ccccc1 (stereo not given) | 9.7% |
| O=C(Nc1ccccc1F)c1ccc(Cl)c([N+](=O)[O-])c1 | -12.6% |
| N/C(=N\OC(=O)Cc1ccc(-c2ccccc2)cc1)c1ccccn1 | -6.6% |

| Structure (SMILES) | displacement |
| --- | --- |
| Cc1cc(C(F)(F)F)nn1CC(=O)Nc1sc2c(c1C(N)=O)CCC(C)C2 (stereo not given) | 10.8% |
| Cc1cc(NC(=O)c2ccc(C)c([N+](=O)[O-])c2)ccc1NC(=O)c1ccco1 | 0.6% |
| NNC(=O)c1ccc(-n2c(-c3ccccc3)ccc2-c2ccccc2)cc1 | 10.5% |
| O=C(Nc1cccc(Cl)c1)c1cccc(NC(=S)Nc2ccc(F)cc2)c1 | -3.1% |
| Cc1nc(SCC(=O)NC2CCCCC2)n[nH]1 | 4.7% |
| O=C(O)CN(c1cccc(Br)c1)S(=O)(=O)c1ccccc1 | 6.1% |
| C=CCOc1c(Cl)cc(/C=C2/C(=O)NN(c3ccc(F)cc3)C2=O)cc1OC | -0.5% |
| CCOC(=O)C1CCN(C(=O)c2ccccc2NC(C)=O)CC1 | -11% |
| COc1ccc(N2C(=O)/C(=C\c3cccnc3)SC2=S)cc1 | 15.9% |
| O=C(N/N=C/c1cccc([N+](=O)[O-])c1)C1CC(=O)N(c2ccc(F)cc2)C1 (stereo not given) | -10.4% |
| Cc1cccc(OCc2nc(-c3ccc(Cl)cc3)no2)c1 | 9.6% |
| Cc1cc2nc(-c3ccc(Cl)c(NC(=O)c4ccco4)c3)oc2cc1C | -10.7% |
| COC(=O)c1ccc(NC(=O)CCNS(=O)(=O)c2ccc(C)cc2)cc1 | -2.6% |
| COc1ccc(N(CC(=O)Nc2ccc(C(C)=O)cc2)S(=O)(=O)c2ccccc2)cc1Cl | 1.9% |
| Cc1ccc(C(=O)Nc2ccc(NC(=O)c3ccccc3Cl)cc2)cc1[N+](=O)[O-] | -1.5% |
| O=C(CN1C(=O)c2ccc([N+](=O)[O-])cc2C1=O)Nc1ccc2ccccc2c1 | -8.3% |
| COc1ccc(/C=C2\SC(=NCc3ccccc3)N(Cc3ccccc3)C2=O)cc1C(=O)O | 78% |
| COc1cccc(CN2CCN(C(=O)c3cccc4ccccc34)CC2)c1 | 4.6% |
| COc1ccc(-c2csc(/C(C#N)=C\c3ccc(C)s3)n2)cc1 | 115% |
| O=C(O)C1CC=CCC1C(=O)Nc1ccc(-c2ccccc2)cc1 (stereo not given) | -5.8% |
| CC(C)=C1C2CCC1C(C(=O)Nc1cc(C)cc(C)c1)C2C(=O)O (stereo not given) | 3.3% |
| Cc1ccc(N(CC(=O)NCCc2ccccc2)S(C)(=O)=O)cc1Cl | 19.2% |
| O=[N+]([O-])c1cc([N+](=O)[O-])c2oc(-c3ccccc3)c(Br)c2c1O | 41.7% |
| COc1cccc(C2C(C(=O)Nc3ccccc3)=C(C)N=c3s/c(=C\c4ccncc4)c(=O)n32)c1 (stereo not given) | 9.6% |
| O=C(Nc1ccc(Cl)cn1)c1cc([N+](=O)[O-])ccc1Cl | -4.1% |
| CCCc1ccc(-c2ccc(-c3nc(-c4ccccn4)no3)cc2)cc1 | 2.7% |
| Cc1ccc(Cl)cc1NC(=O)CSc1nc2ccc(N3C(=O)c4ccccc4C3=O)cc2s1 | -14.8% |

| Structure (SMILES) | displacement |
| --- | --- |
| CCOC(=O)C1=C(c2ccccc2)N=C2SCC(=O)N2C1c1ccc2c(c1)OCO2 (stereo not given) | -11.2% |
| O=C(O)c1cc(-c2ccc(O)cc2)nc2ccc(Br)cc12 | 10.4% |
| COc1ccc(C2CC(c3ccc(C)o3)=NN2C(C)=O)cc1 (stereo not given) | -1% |
| CCc1ccc(NC(=O)CSc2ccc(Cl)cc2)cc1 | -8.1% |
| CC(=O)Nc1ccc(C2NC(=O)NC3=Nc4ccccc4SC(c4ccccc4)=C32)cc1 (stereo not given) | 10.1% |
| O=C(Nc1ccccc1Br)c1ccc(CN2CCc3ccccc3C2)cc1 | 3.3% |
| OC(COCc1ccccc1)CN1CCN(c2ccccn2)CC1 (stereo not given) | 8.6% |
| O=C(CSc1nc2ccc([N+](=O)[O-])cc2s1)NC(c1ccccc1)c1ccccc1 | -7.3% |
| CCOC(=O)c1ccc(NC(=O)c2cc(Cl)ccc2OC)cc1 | -0.8% |
| O=C1NC(=S)S/C1=C/c1cn(CCOc2ccc(Br)cc2)c2ccccc12 | 68.9% |
| O=C1N=C(N2CCCCCC2)S/C1=C\c1ccc(O)cc1 | -26.3% |
| CCSc1nnc(NC(=O)c2ccc3c(c2)OCO3)s1 | 2.4% |
| CCOc1ccc(NC(=S)NC(NC(=O)c2ccccc2Cl)C(Cl)(Cl)Cl)cc1 (stereo not given) | -11.1% |
| COC(=O)c1ccc(OCC(O)Cn2nc(C)cc2C)cc1 (stereo not given) | -9.8% |
| C=CCOc1ccc(/C=C/C(=O)c2ccc(Cl)cc2)cc1 | -2.1% |
| Cc1ccc(C(=O)Nc2ccc(S(=O)(=O)N3CCC(C)CC3)cc2)cc1 | 2.4% |
| COc1ccccc1CC(=O)N1CCN(c2ccc([N+](=O)[O-])cc2)CC1 | 11.9% |
| COC(=O)C1=C(C(=O)OC)SC2(S1)C(C(=O)OC)=C(C(=O)OC)SC1=C2c2cccc(OC)c2NC1(C)C | 5.3% |
| O=[N+]([O-])c1ccc(N[C@@H]2OC[C@@H](O)[C@H](O)[C@@H]2O)cc1 | 9% |
| O=C(N/N=C/c1cccnc1)c1ccco1 | 18.4% |
| Cc1ccc(-n2cnc(N=CN(C)C)c2C(=O)c2ccccc2)cc1 | -0.1% |
| COc1ccc(N2C(=O)c3ccccc3NC2c2ccc(OC)c(OC)c2)cc1 (stereo not given) | 14.4% |
| S=C(c1ccc(-c2ccc(Cl)c(Cl)c2)o1)N1CCOCC1 | 10% |
| CCCCCCCCS(=O)c1sc2nc3c(cc2c1N)CCCC3 (stereo not given) | -6% |
